According to PubChem BioAssay AID485297 (National Center for Advancing Translational Sciences (NCATS), 2010):
About 9,100 (2.8%) of roughly 320,000 compounds were called active. This list was built around the results that the source calls inconclusive (neither active nor inactive); the mix of calls is not that of the screen. Calls follow the shape of the dose curve; as a rule, active = well fitted activation curve with a large enough effect; inconclusive = small, poorly fitted or top-dose-only effect; inactive = no such curve, though single readings can be large or run the other way. Where the call is inconclusive, the potency comes from a doubtful curve fit.

assay: qHTS Assay for Rab9 Promoter Activators; settings: Huh7 Rab9 promoter-luciferase reporter, luminescence, 24 h; series mostly up to 9.22 µM; activation, negative = inhibition: at the top concentration; also: nearly all actives have a fitted effect of over 60% in size; as to activation, negative = inhibition: % of control where 0% means no effect
Summary of the method: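 Luciferase signal after 10 min detection reagent at ambient indicates Rab9 promoter upregulation; stably transfected Huh7 cells were treated 24 h with compound in DMSO at 37 °C, 5% CO2.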
Potency is read from the fitted curve at half-maximal effect; tags tell the direction and shape of the fitted curve.

Potency, active:
CCN1CCN(Cc2ccc(NC(=O)Nc3ccccc3)cc2)CC1 1.41 µM
Fc1ccc(CSc2nc3ccccc3[nH]2)cc1 1.41 µM
Cc1cc(-c2nc3ccccc3[nH]2)ccc1N 0.562 µM
CCOc1ccc(-c2ccc(SCC)nn2)cc1 0.631 µM
CCOC(=O)c1csc(NC(=O)c2ccccc2)n1 1.78 µM
Cc1nc(-c2ccc3c(c2)OCCO3)cs1 3.16 µM
OCCCNc1ncnc2c1cnn2-c1ccc(Cl)cc1 0.282 µM
Fc1ccc(-c2nnc(-c3ccc(Cl)cc3)o2)cc1 0.794 µM
Cc1ccc(NC2=Nc3ccccc3CS2)cc1 0.316 µM
CN(C)S(=O)(=O)c1cccc(NC(=S)NC(=O)c2ccco2)c1 3.55 µM
CC(=O)CSc1ccc(-c2nc3ccccc3[nH]2)cn1 0.708 µM
Cc1ccccc1N/N=C/c1ccc(N2CCOCC2)cc1 2 µM
C/C(=N\Nc1ccccn1)c1ccc2c(c1)OCO2 3.16 µM
Fc1cc(Br)ccc1COc1ccc(-c2nnco2)cc1 2.51 µM
CCCCNC(=S)Nc1ccc(-c2nc3ccc(C)cc3s2)cc1 2.82 µM
Cc1ccc(NCc2nc3ccccc3n2CCOc2ccccc2)cc1 2.51 µM
COc1ccc(/C=C/C(=O)NC(=S)N2CCOCC2)cc1 1.58 µM
O=C1/C(=C\c2ccco2)CCC/C1=C\c1ccco1 3.16 µM
CCCCN1CCc2c([nH]c3ccc(C)cc23)C1=O 3.55 µM

Potency, inconclusive:
Cc1nnc(-c2ccc(N3CCCCCC3)c([N+](=O)[O-])c2)o1 5.62 µM [activator, single point]
Cc1ccc(C2=NN(S(C)(=O)=O)C(c3ccc4nccnc4c3)C2)cc1 (stereo not drawn) 6.31 µM [activator, single point]
C=CCNC(=O)/C=C/c1ccc(C(C)C)cc1 2.82 µM [activator, partial curve]
CN1N=C2c3ccccc3CCC2C1c1ccc(Cl)cc1 (stereo not drawn) 2.51 µM [activator, partial curve]
Cc1ccc(-c2nnc(Sc3nc4ccccc4o3)c3ccccc23)cc1 1.41 µM [activator, partial curve, poor fit]
COc1ccc(-c2cc3ncnc(Cl)c3s2)cc1 3.55 µM [activator, single point]
COC(=O)C(Cc1ccc(OC(=O)c2ccc(Cl)cc2)cc1)N1Cc2ccccc2C1=O (stereo not drawn) 3.55 µM [activator, partial curve]
CC(=O)c1c(C)[nH]c(C(=O)Nc2ccc(F)cc2F)c1C 3.55 µM [activator, single point]
CCN(CC)C(=O)Oc1ccc2ccccc2c1Br 5.62 µM [activator, single point]
CCN(CC)C(=O)C(=O)Nc1cccc(Br)c1 3.98 µM [activator, single point]
Cc1ccc(C(=O)CNc2cccc(Cl)c2)cc1 5.62 µM [activator, single point]
CC(=O)COc1cccc2ccc(/C=C/c3ccc(Br)s3)nc12 4.47 µM [activator, partial curve]
Cc1nc(Nc2ccc(C(=O)O)cc2)sc1-c1ccccc1 0.0251 µM [activator, full curve]
CC(C)C(=O)Nc1ccc(NC(=O)c2ccco2)cn1 3.16 µM [activator, partial curve]
Clc1ccccc1-c1csc(Nc2cccnc2)n1 2.82 µM [activator, partial curve]
CCc1ccc2oc(-c3cc(N)cc(C)c3O)nc2c1 3.55 µM [activator, single point]
COc1cccc(C(=O)NCCSCc2c(F)cccc2Cl)c1 5.62 µM [activator, single point]
O=C(/C=C/c1ccccc1)CC(=O)c1ccccc1O 5.01 µM [activator, partial curve, poor fit]
Cc1ccc(NC(=O)CCC(=O)c2cccs2)cc1F 2.82 µM [activator, partial curve]
O=C(CSc1n[nH]c(=O)n1Cc1ccco1)c1ccc2c(c1)OCCO2 5.62 µM [activator, single point]
Brc1ccccc1C1N=C(c2ccccc2)NO1 (stereo not drawn) 4.47 µM [activator, partial curve]
Nc1ccc2oc(=O)c3ccccc3c2c1 3.55 µM [activator, partial curve]
COc1ccc(C(=O)N2c3ccccc3C(=O)OC2c2ccc3c(c2)OCO3)cc1 (stereo not drawn) 3.55 µM [activator, single point]
CSc1ncccc1C(=O)Nc1nc2ccc(F)cc2s1 7.08 µM [activator, partial curve, poor fit]
COC(=O)c1ccc(N2C(=O)CC(SCCN)C2=O)cc1 (stereo not drawn) 3.55 µM [activator, partial curve]
COc1cc(/C=N/n2cnnc2)ccc1OCCSc1ccc(C)cc1 5.62 µM [activator, single point]
Cc1cc(/C=C(\C#N)C(=O)NCc2ccco2)c(C)n1C1CCCC1 5.62 µM [activator, single point]
Cc1nnsc1C(=O)NNc1ccc(C(C)C)cc1 2.51 µM [activator, partial curve]
NS(=O)(=O)c1cccc(NC(=O)CCSc2ccccc2Cl)c1 3.98 µM [activator, single point]
C(=N\n1cnnc1)/c1ccc(OCc2cccc3ccccc23)cc1 3.16 µM [activator, single point]
O=C(OC1CCCCC1)c1cc2ccccc2oc1=O 4.47 µM [activator, single point]
COc1ccc(OCc2cc(C(=O)NCC3(C)COC3)no2)c(Cl)c1 3.98 µM [activator, single point]
Cn1c(=O)c2c(nc(NCCNC(=O)c3ccco3)n2Cc2ccccc2)n(C)c1=O 1 µM [activator, single point]
Cc1cc(C)c2c(N)c(C(=O)Nc3ncc(C)s3)sc2n1 0.891 µM [activator, partial curve]
Cc1csc(NC(=O)CSc2nnc(-c3ccoc3C)o2)n1 2.82 µM [activator, partial curve]
Cc1ccc(C(=O)N/N=C2\CCCc3ccccc32)c(C)c1 2 µM [activator, partial curve]
CCOC(=O)c1cc(-c2ccc(OC)cc2)n[nH]1 3.55 µM [activator, partial curve]
CCc1ccc(C(=O)COC(=O)c2ccc(Cl)nc2)cc1 1.78 µM [activator, partial curve]
N#C/C(=C1/CCCCCN1)c1nc2ccccc2[nH]1 3.16 µM [activator, partial curve]
O=C(/C=C/c1ccc(-c2ccccc2[N+](=O)[O-])o1)c1ccco1 3.98 µM [activator, single point]
CC(=O)Nc1ccc(SCCCC(=O)c2ccccc2)cc1 3.16 µM [activator, single point]
Cc1cccc2sc(NC(=O)C3CCCO3)nc12 (stereo not drawn) 2.82 µM [activator, partial curve]
Cc1ccc(CC(=O)Nc2ccc(Cl)cn2)cc1 2.24 µM [activator, partial curve]
S=c1[nH]nc(-c2ccncc2)n1/N=C/c1cn(-c2ccccc2)nc1-c1ccccc1 3.55 µM [activator, single point]
COc1ccc(OCCCSc2ncccn2)cc1 2.24 µM [activator, partial curve]
Cc1cccc(OCc2nc3ccccc3c(=O)n2N)c1 3.16 µM [activator, partial curve]

activation, negative = inhibition, inactive:
CC(Cc1cccnc1)NC(=O)c1cc(COc2c(F)cccc2F)on1 (stereo not drawn) 11.5%
COc1ccc(C=O)cc1COc1ccc2c(c1)OCO2 1.35%
Cc1sc(NC(=S)NC(=O)c2cccs2)nc1-c1ccc(C(C)C)cc1 8.07%
N#CCCN(CC(=O)O)S(=O)(=O)c1ccccc1 -0.445%
Cc1cc2c3c([nH]c2cc1S(=O)(=O)NCCCOC(C)C)CC(C)(C)CC3=O -8.68%
Cc1ccccc1S(=O)(=O)/N=C(/c1ccccc1)N(C)C -2.47%
Cc1nn(-c2ccccc2)c(C)c1-c1nnc(-c2c(C)nn(-c3ccccc3)c2C)o1 -4.56%
CC(C)C(=O)Nc1nnc(SCC(=O)N2c3ccccc3CC2C)s1 (stereo not drawn) -3.54%
CCCCn1c(N)c(N(CC(C)C)C(=O)C2CCN(S(=O)(=O)c3ccc(C)cc3C)CC2)c(=O)[nH]c1=O -4%
Cc1cc2c(=O)oc(-c3ccc(F)cc3)nc2s1 -5.98%
Cc1cc2nn(-c3cccc4ccccc34)nc2cc1NC(=O)c1cccs1 8.95%
Cn1cnnc1SCc1ccc(-c2ccc(Br)cc2)o1 19.7%
COc1ccccc1CNC(=O)COC(=O)C1CCN(c2ccc(C(F)(F)F)cn2)CC1 1.86%
